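All cell lines were grown in 96-well plates and treated with compound for 48 hours. TGI marks complete inhibition of growth.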 Certain results were filed several times, with different values. The list is limited to them. The source may hold further records. A record mostly stands for its own series of concentrations, which the source does not state; a value can be the end of its range.
Tests used:
Experiment in all cases: NCI tumour cell line growth inhibition, 48 h
HT29 colon = test system: HT29 colon
OVCAR-3 ovarian = test system: OVCAR-3 ovarian
OVCAR-5 ovarian = test system: OVCAR-5 ovarian
T-47D breast = test system: T-47D breast

**Q.** Which results are given for `CC1OC(OC2CCC3(C=O)C4CCC5(C)C(C6=CC(=O)OC6)CCC5(O)C4CCC3(O)C2)C(O)C(O)C1O` (centres undefined)?
**A.** TGI (HT29 colon): 0.0989 nM and 17.9 nM; TGI (OVCAR-3 ovarian): 0.0332 nM and 11.8 nM; TGI (OVCAR-5 ovarian): 0.0781 nM and 27.4 nM; TGI (T-47D breast): 0.141 nM and > 100 µM

Source: PubChem BioAssay (NCI)
